20 molecules from paper PMC9911399, “Two distinct binding modes provide the RNA-binding protein RbFox with extraordinary sequence specificity” can be followed below.

Residue numbers refer to the chain shown, from its start. Some of the results follow.

T1: RBFOX1 RRM RbFoxmut (Fox-RRM*) (Homo sapiens, UniProt Q9NWB1 109-208, R118D;E147R;N151S;E152T)
T1 sequence: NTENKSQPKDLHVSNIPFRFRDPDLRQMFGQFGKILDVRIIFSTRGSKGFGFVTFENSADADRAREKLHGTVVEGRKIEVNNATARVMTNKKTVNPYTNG

B1: AGAAAAU (DNA:RNA)
RNA: GGGAGACCGGAAUUCAGAUUGUCCAGAAAAUUUAAAUCCCGUCGUAGCCACCA
DNA 1: CAATCTGAATTCCGGTCTCCC
DNA 2: TGGTGGCTACGACGGGATT
B2: GUCUUGG (DNA:RNA)
RNA: GGGAGACCGGAAUUCAGAUUGUCCGUCUUGGUUAAAUCCCGUCGUAGCCACCA
DNA 1: CAATCTGAATTCCGGTCTCCC
DNA 2: TGGTGGCTACGACGGGATT
B3: CACGAUA (DNA:RNA)
RNA: B1 RNA with A25C, G26A, A27C, A28G, A30U, U31A
DNA 1: CAATCTGAATTCCGGTCTCCC
DNA 2: TGGTGGCTACGACGGGATT
B4: AUCAUCG (DNA:RNA)
RNA: B2 RNA with G25A, U28A, G30C
DNA 1: CAATCTGAATTCCGGTCTCCC
DNA 2: TGGTGGCTACGACGGGATT
B5: UCGUUAG (DNA:RNA)
RNA: B2 RNA with G25U, U26C, C27G, G30A
DNA 1: CAATCTGAATTCCGGTCTCCC
DNA 2: TGGTGGCTACGACGGGATT
B6: ACCUUGA (DNA:RNA)
RNA: B2 RNA with G25A, U26C, G31A
DNA 1: CAATCTGAATTCCGGTCTCCC
DNA 2: TGGTGGCTACGACGGGATT
B7: AUGUGAG (DNA:RNA)
RNA: B2 RNA with G25A, C27G, U29G, G30A
DNA 1: CAATCTGAATTCCGGTCTCCC
DNA 2: TGGTGGCTACGACGGGATT
B8: GUAUGCC (DNA:RNA)
RNA: B2 RNA with C27A, U29G, G30C, G31C
DNA 1: CAATCTGAATTCCGGTCTCCC
DNA 2: TGGTGGCTACGACGGGATT
B9: GUAUCAC (DNA:RNA)
RNA: B2 RNA with C27A, U29C, G30A, G31C
DNA 1: CAATCTGAATTCCGGTCTCCC
DNA 2: TGGTGGCTACGACGGGATT
B10: AUAUCCU (DNA:RNA)
RNA: B1 RNA with G26U, A28U, A29C, A30C
DNA 1: CAATCTGAATTCCGGTCTCCC
DNA 2: TGGTGGCTACGACGGGATT
B11: AUAUGUG (DNA:RNA)
RNA: B2 RNA with G25A, C27A, U29G, G30U
DNA 1: CAATCTGAATTCCGGTCTCCC
DNA 2: TGGTGGCTACGACGGGATT
B12: CAAUGUU (DNA:RNA)
RNA: B1 RNA with A25C, G26A, A28U, A29G, A30U
DNA 1: CAATCTGAATTCCGGTCTCCC
DNA 2: TGGTGGCTACGACGGGATT
B13: AGGAAUG (DNA:RNA)
RNA: B1 RNA with A27G, A30U, U31G
DNA 1: CAATCTGAATTCCGGTCTCCC
DNA 2: TGGTGGCTACGACGGGATT
B14: UCAACUG (DNA:RNA)
RNA: B1 RNA with A25U, G26C, A29C, A30U, U31G
DNA 1: CAATCTGAATTCCGGTCTCCC
DNA 2: TGGTGGCTACGACGGGATT
B15: CCCCCCA (DNA:RNA)
RNA: B2 RNA with G25C, U26C, U28C, U29C, G30C, G31A
DNA 1: CAATCTGAATTCCGGTCTCCC
DNA 2: TGGTGGCTACGACGGGATT
B16: CGGUGUC (DNA:RNA)
RNA: B1 RNA with A25C, A27G, A28U, A29G, A30U, U31C
DNA 1: CAATCTGAATTCCGGTCTCCC
DNA 2: TGGTGGCTACGACGGGATT
B17: UGAAUGU (DNA:RNA)
RNA: B1 RNA with A25U, A29U, A30G
DNA 1: CAATCTGAATTCCGGTCTCCC
DNA 2: TGGTGGCTACGACGGGATT
B18: CCCCGUG (DNA:RNA)
RNA: B2 RNA with G25C, U26C, U28C, U29G, G30U
DNA 1: CAATCTGAATTCCGGTCTCCC
DNA 2: TGGTGGCTACGACGGGATT
B19: AGCGGUA (DNA:RNA)
RNA: B1 RNA with A27C, A28G, A29G, A30U, U31A
DNA 1: CAATCTGAATTCCGGTCTCCC
DNA 2: TGGTGGCTACGACGGGATT
B20: GUAAGUA (DNA:RNA)
RNA: B1 RNA with A25G, G26U, A29G, A30U, U31A
DNA 1: CAATCTGAATTCCGGTCTCCC
DNA 2: TGGTGGCTACGACGGGATT

The target of the assay is T1, RBFOX1 RRM RbFoxmut (Fox-RRM*). In words: EMSA; HiTS-Eq, 1 nM pool, 10 min; buffer printed only for the single-RNA assays: 10 mM Tris pH 7.5, 150 mM NaCl, 3.4 mM EDTA, 0.001% NP-40, 30 C. To be noted: tags: His6 N-terminal (pET28a); label: 5' 32P. The gist of the method: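 These values rest on relative association constants, computed from read-count changes of each RNA species versus the control reaction and normalised to the cognate motif. Reads came from free RNA recovered by 8% native PAGE after purified RbFox RRM (wild type or mutant) at increasing concentrations was equilibrated for 10 min in 50 µL with 1 nM of a 5′-radiolabelled pool with 7 randomized nucleotides and DNA-annealed flanks.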
(In general: In EMSA bound probe runs differently from free probe, usually more slowly.)
In the case of B1, the binding signal was 0.072 KA relative to UGCAUGU. For B2 the value was 0.403 KA relative to UGCAUGU.

Take B3: the binding signal was 0.105 KA relative to UGCAUGU. For B4 the value was 0.148 KA relative to UGCAUGU; for B5, 0.146 KA relative to UGCAUGU; for B6, 0.0971 KA relative to UGCAUGU. In the case of B7 it was 0.17 KA relative to UGCAUGU; in that of B8, 0.278 KA relative to UGCAUGU; in that of B9, 0.125 KA relative to UGCAUGU. Take B10: the binding signal is 0.0827 KA relative to UGCAUGU. In the case of B11 it was 0.19 KA relative to UGCAUGU; in that of B12, 0.109 KA relative to UGCAUGU. As for B13, the binding signal was 1.4 KA relative to UGCAUGU. In the case of B14 it was 0.0679 KA relative to UGCAUGU. As for B15, the binding signal is 0.0562 KA relative to UGCAUGU.

Turning to B16, the binding signal is 0.21 KA relative to UGCAUGU. For B17 the value was 0.75 KA relative to UGCAUGU; for B18, 0.0924 KA relative to UGCAUGU. In the case of B19 it was 0.161 KA relative to UGCAUGU. In the case of B20 it was 0.148 KA relative to UGCAUGU.
